The values below come from paper PMC7819943, “Rice protein-binding microarrays: a tool to detect cis-acting elements near promoter regions in rice”.

Some of the results follow.

In the assay the target is T1, OsWOX13 (Oryza sativa, UniProt Q5QMM3 1-267).
T1 sequence: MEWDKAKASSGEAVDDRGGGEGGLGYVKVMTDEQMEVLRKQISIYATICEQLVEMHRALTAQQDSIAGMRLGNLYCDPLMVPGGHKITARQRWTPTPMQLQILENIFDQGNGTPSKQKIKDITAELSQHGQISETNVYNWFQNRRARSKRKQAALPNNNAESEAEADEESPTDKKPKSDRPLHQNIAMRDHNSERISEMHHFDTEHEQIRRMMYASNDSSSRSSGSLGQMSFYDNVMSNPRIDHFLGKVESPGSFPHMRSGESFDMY
Kind of assay: protein-binding microarray (RPBM); PBS, 2% BSA, 51.3 ng/ul salmon testes DNA, 50 uM zinc acetate, 200 nM TF, 25 C, 1 h; high values mean tight binding. Particulars: protein: recombinant; tags: N-terminal polyhistidine and DsRed monomer fusion (pET32a); label: CyDye5-dUTP incorporated in the synthesized complementary strand; 3' TTTTT single-stranded linker to array surface; dsDNA, one strand shown. The procedure, abridged:
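Ni–NTA purification followed expression in E. coli BL21-CodonPlus of transcription factors fused N-terminally to a polyhistidine tag and DsRed. At 200 nM in PBS with 2% BSA, salmon testes DNA and 50 µM zinc acetate, the protein was incubated for 1 h at 25 °C with a custom Agilent array that had been primer-extended with Cy5-dUTP and blocked with 2% BSA. After washing, the array was read on an Axon 4000B scanner. The binding signal is per-feature fluorescence intensity in arbitrary units.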
Take “GAAAATTGACTTCAATCCAAACAAGCCTAAAGTTTTACCACGGAGTCACCTAGTGCAG”: the binding signal is 31100 fluorescence intensity (a.u.).

As to “GTGTGAATTTGATTTGCGTGGAGGGTGACACCGTGTGGTACGGAGTCACCTAGTGCAG”, the binding signal is 10900 fluorescence intensity (a.u.). Take “CAAGATGACATAATCAGTTATGTCACAGGAGACCACCAAACGGAGTCACCTAGTGCAG”: the binding signal was 15600 fluorescence intensity (a.u.). The result for “ATGACCAAATTCATTGATTAGATTGTGTCATATTACTCAACGGAGTCACCTAGTGCAG” reads 19900 fluorescence intensity (a.u.); that for “CGCTTCTTGATTTCTTCGTTTTGCTCGGACACTGTGACCGCGGAGTCACCTAGTGCAG”, 4970 fluorescence intensity (a.u.); that for “TTAATTTGATCGATAAGCAAGCTTATTTAGCTGATAAATCCGGAGTCACCTAGTGCAG”, 5160 fluorescence intensity (a.u.). In the case of “GGACGTGATTGAAACTCAACAACCGGTTAAGGGATGTGATCGGAGTCACCTAGTGCAG”, the binding signal was 44200 fluorescence intensity (a.u.). The same measure for “GCAAAATTTAAAATTATGTTGTCATTTTAATATATTTGAACGGAGTCACCTAGTGCAG”: 13700 fluorescence intensity (a.u.); for “AACTCAAATTAAATTAATATATTCCCTCCATCTCTAAATACGGAGTCACCTAGTGCAG”: 6660 fluorescence intensity (a.u.). The result for “GTTATGAGACTGATCAATTTTCATTAGATTTGCTCACTGCCGGAGTCACCTAGTGCAG” reads 5640 fluorescence intensity (a.u.).

On to “AACTATTAATTAATTCCCTGGGTCTATAATGATTTTGGATCGGAGTCACCTAGTGCAG”, for which the binding signal was 30500 fluorescence intensity (a.u.). The result for “AAGCTTATTGGGATAAATTAGCTAAAGAGAGGGTGTAGTGCGGAGTCACCTAGTGCAG” reads 5050 fluorescence intensity (a.u.); that for “ACAAAATTTAGTATATACAGACCTTTTCCTATAAAGTCAACGGAGTCACCTAGTGCAG”, 4810 fluorescence intensity (a.u.). The result for “ACCACCATTTAATTGGGCCACCCTCCCCACCCGTCTCTCACGGAGTCACCTAGTGCAG” reads 10300 fluorescence intensity (a.u.); that for “AACAGTCAGTTTCCATTAATTAATGGGCGCCATAGCTGTGCGGAGTCACCTAGTGCAG”, 15900 fluorescence intensity (a.u.). The result for “CTAAACTCCCTATCAATTTGTACCATGTGTACTAAACAAGCGGAGTCACCTAGTGCAG” reads 16500 fluorescence intensity (a.u.); that for “TTAGCGAATTAATTAGTGTGGTAATCAGCTGCTAACTACGCGGAGTCACCTAGTGCAG”, 15600 fluorescence intensity (a.u.); that for “ATATATATGATGAAATGTGACTAGCTAAATTTATCTAAGCCGGAGTCACCTAGTGCAG”, 3590 fluorescence intensity (a.u.).

Consider “CGCAACCGCAATCACATTGTGTTATCTTGTCTCCGGCCAGCGGAGTCACCTAGTGCAG”, for which the binding signal was 6350 fluorescence intensity (a.u.). The same measure for “ATGAAATTTAATTCCAGCTTAGCAGATAATATGATTCGGGCGGAGTCACCTAGTGCAG”: 4180 fluorescence intensity (a.u.); for “TAAAATTAGGATGACAGAGCATCCTAGGCAATAATTAAGCCGGAGTCACCTAGTGCAG”: 6600 fluorescence intensity (a.u.); for “GAAAATGATAATCATATTTGCATATGGATCTTTGATAGGACGGAGTCACCTAGTGCAG”: 19900 fluorescence intensity (a.u.). In the case of “TGTTAGATGATAAAACATGATTAATATTTTATGTGTGACTCGGAGTCACCTAGTGCAG”, the binding signal is 4360 fluorescence intensity (a.u.). The result for “TCTTAAGTTTGTAATAATTAAAACTCAATTAGTCACACGACGGAGTCACCTAGTGCAG” reads 6950 fluorescence intensity (a.u.). The result for “GTGATGATATAAACACAAATTCTATTTGCGTTGCACACTGCGGAGTCACCTAGTGCAG” reads 5700 fluorescence intensity (a.u.).

“AATCCTTAACTGCTCGGATATTTCAATTTGGTCACCAGAGCGGAGTCACCTAGTGCAG”: the binding signal was 4480 fluorescence intensity (a.u.). “ACAACAATTGATGGACCTGAAGCCAATGTATAGGCCACCCCGGAGTCACCTAGTGCAG”: the binding signal was 6950 fluorescence intensity (a.u.).

With “ACTGTTGATTCGGGTTAAATTGTCACATTGGACAAAACCACGGAGTCACCTAGTGCAG”, the binding signal was 10600 fluorescence intensity (a.u.). Take “GAAGAAATTGAACGCGACAACGAGTGCATGTCATATTCAGCGGAGTCACCTAGTGCAG”: the binding signal was 4560 fluorescence intensity (a.u.).

On to “CAATACCAACAATCAATCAATTGTCTTTTAAATTGGTCCACGGAGTCACCTAGTGCAG”, for which the binding signal was 36300 fluorescence intensity (a.u.). The result for “GCAGGGAATTGATGAGCTCCGTGATTGGACTGCCAAACGCCGGAGTCACCTAGTGCAG” reads 45600 fluorescence intensity (a.u.). As to “GTCACTGACTGACTAAATCGAAACAAGTCAAACAACCAAACGGAGTCACCTAGTGCAG”, the binding signal was 15200 fluorescence intensity (a.u.). The result for “CCAAATCATTGGCAAATTTTGGTAGTAACAAATGTTTTGGCGGAGTCACCTAGTGCAG” reads 17400 fluorescence intensity (a.u.). The same measure for “GCAGATTAGTCGTTAGTGGTGACAGAAACGGCAAAAGTGGCGGAGTCACCTAGTGCAG”: 6220 fluorescence intensity (a.u.); for “CTTAATTAGCTAGCTAGCCGCTCAAGTCATATATATATATCGGAGTCACCTAGTGCAG”: 21100 fluorescence intensity (a.u.). The same measure for “ATTGTATGTTAATTGTGCACCTTTTGATCGATGGAGACGACGGAGTCACCTAGTGCAG”: 5200 fluorescence intensity (a.u.). With “ATAACTTTAATTCGATTTTAGATTGTTACTACATTTTGAGCGGAGTCACCTAGTGCAG”, the binding signal is 15200 fluorescence intensity (a.u.). Take “TTTATACAACTATTAACTTAATTAATGTTTACCATATTATCGGAGTCACCTAGTGCAG”: the binding signal was 7160 fluorescence intensity (a.u.).

Take “ACATGATTATATGATGCACTATTGTGACACAATGATGAGTCGGAGTCACCTAGTGCAG”: the binding signal was 21100 fluorescence intensity (a.u.). The same measure for “CATGTTGTTTGAGCAATTTAATTGCCATCTATTTTGAATTCGGAGTCACCTAGTGCAG”: 6330 fluorescence intensity (a.u.); for “GACCGGTGATTAGGTTTTCAAGACAATGTTGTATTTTCCTCGGAGTCACCTAGTGCAG”: 10300 fluorescence intensity (a.u.); for “CAAATGAACAATCTGATCGAGATGACGACATCTGATCTAGCGGAGTCACCTAGTGCAG”: 3420 fluorescence intensity (a.u.).
